SMILES strings stand for the structures. The whole screen tested about 50,000 compounds, of which about 800 (1.6%) showed an effect of 50% or more. The list shows a part of the results.

Among the data in PubChem BioAssay AID1240 (Sanford-Burnham Center for Chemical Genomics, 2008) are displacement values, retold here.

This assay concerns the target Bcl-2-like protein 10 (Homo sapiens) (UniProt Q9HD36). Put plainly: Phenotype converters, Bcl-B/TR3 peptide binding displacement, primary biochemical FP (AID 1240).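 Further: 0% = Bcl-B with tracer peptide and DMSO and 100% = tracer peptide lacking Bcl-B.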 As to conditions: GST-Bcl-B / FITC-TR3 peptide fluorescence polarization; stronger effect = higher value; compound at 3.75 mg/L. On the technique in general: Fluorescence polarisation rises when a labelled molecule tumbles more slowly, as on binding a larger partner.
Sequence of UniProt Q9HD36 (Q9HD36 whole entry, looked up): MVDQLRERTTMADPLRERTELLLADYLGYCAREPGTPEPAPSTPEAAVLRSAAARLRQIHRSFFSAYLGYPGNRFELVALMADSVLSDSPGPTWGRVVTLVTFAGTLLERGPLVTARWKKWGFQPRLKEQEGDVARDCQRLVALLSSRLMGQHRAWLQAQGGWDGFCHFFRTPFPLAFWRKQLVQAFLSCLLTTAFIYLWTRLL
On to `CCOc1ccccc1NC(=O)CCN1C(=O)c2ccccc2C1=O`, for which the displacement was 9.6%.

On to `COc1ccccc1-c1nc(-c2ccc(Cl)cc2Cl)no1`, for which the displacement turned out to be 8%. As for `CCCC(=O)Nc1ccc2nn(-c3ccc(F)cc3)nc2c1`, the figure is 0.6%; as for `O=C(CCOc1ccccc1)Nc1cccc([N+](=O)[O-])c1`, -4.5%. As for `O=C1C=C(NNC(=O)c2ccc(Cl)cc2)CCC1`, the figure is 42.5%.

Take `O=C(NCC1CCCO1)c1nc2nc(-c3ccccc3)cc(C(F)(F)F)n2n1` (centres undefined): the displacement is -2.3%. Turning to `CCc1ccccc1NC(=O)c1ccc(Cl)c([N+](=O)[O-])c1`, the displacement was 19.4%. For `Cc1cccc(/C(N)=N/OC(=O)COc2ccccc2)c1`, the displacement amounted to 8.2%. With `O=CN1N=C(c2ccccc2)CC1(O)C(F)(F)F` (centres undefined) the figure was 13.4%. As for `Cc1ccc(C2/C(=C(\O)c3ccc(F)cc3)C(=O)C(=O)N2CCCCCC(=O)O)cc1` (centres undefined), the displacement is -4.8%. With `O=C(NCC1CCCO1)c1cc(-c2ccc(Cl)cc2)nc2ccccc12` (centres undefined), the displacement was -7.6%. As for `O=C(Nc1ccc(O)cc1)c1ccc2c(c1)C(=O)N(c1ccccn1)C2=O`, the figure is 3.7%. Consider `NC(=O)c1c(NS(=O)(=O)c2ccc(Br)cc2)sc2c1CCCCCC2`, for which the displacement turned out to be 14.3%. With `COc1cc(/C=N/NC(=O)CSCc2ccc([N+](=O)[O-])cc2)cc(OC)c1OC` the figure was 1.6%.

`O=C(CSc1nc2ccccc2[nH]1)Nc1ccc(F)c([N+](=O)[O-])c1`: the displacement amounted to 4.1%. With `COc1cccc(N(CC(=O)N2CCCC2)S(=O)(=O)c2ccccc2)c1` the figure was 1.9%; with `COc1cccc(/C=N/NC(=O)C(=O)N2CCCCCC2)c1OC`, -1.2%; with `C#CCOc1cc(Br)c(/C=C2\C(=O)NC(=O)N(c3ccc(Cl)cc3)C2=O)cc1OC`, 19%. As for `CCc1ccc(NC(=O)c2ccccc2C(F)(F)F)cc1`, the figure is 3.7%. `CCOc1ccccc1NC(=O)c1c(NC(=O)c2ccco2)sc2c1CCC2`: the displacement was determined as 4.7%. With `COc1cc(/C=C/C(=O)c2ccc(C)cc2)cc(OC)c1OC` the figure was 1.6%; with `O=C(COC(=O)c1ccccc1C(F)(F)F)c1ccc(-c2ccccc2)cc1`, -2.5%; with `COc1ccc(OCC(=O)NCc2ccc3c(c2)OCO3)cc1`, -8.6%. In the case of `CCOC(=O)C1=C(O)/C(=C/c2cccnc2)SC1=Nc1ccc(C)cc1`, the displacement is 14.8%.

As to `Cc1cc(C)n2nc(-c3ccc(Cl)cc3)cc2n1`, the displacement was -2.3%. As for `CCN(Cc1ccccc1)C(=O)/C=C/c1ccccc1Cl`, the figure is 10%; as for `COc1ccc(C(N)=O)cc1NS(=O)(=O)c1ccc(F)cc1`, 2.6%; as for `CCC(C(=O)Nc1nc2ccc(C)cc2s1)c1ccccc1` (centres undefined), 10.5%. For the molecule `COC(=O)C1=C(C)NC(=O)NC1c1sccc1C` (centres undefined), the displacement was 7.3%. As to `Cc1ccc(NC(=O)CC2SC(N)=NC2=O)c([N+](=O)[O-])c1` (centres undefined), the displacement is -11.1%. `Cc1cc(Cl)c(OCCCN2CCCCC2)c(Cl)c1`: the displacement stood at 2.3%.

Regarding `CCOC(=O)C1=C(O)/C(=C/N(C)C)SC1=Nc1ccccc1`, the displacement was found to be 0.7%. As for `Cc1cccc(NC(=O)/C(C#N)=C\c2ccc(Sc3ccccc3)o2)c1C`, the displacement amounted to 74.9%.

Take `COc1cccc(-c2ncnn2-c2ccc(C)c(Cl)c2)c1OC`: the displacement is -2.6%. With `COc1ccc(/C=C2/SC(=O)N(CCC(=O)Nc3ccc(S(=O)(=O)Nc4nccs4)cc3)C2=O)cc1` the figure was 31.8%.

Take `Cc1ccc(N=C(NOCc2cccc(Br)c2)c2nonc2N)cc1`: the displacement is -4.7%. As to `COc1cc(/C=c2\sc3nc4ccccc4n3c2=O)ccc1OC(=O)c1ccc(Cl)cc1`, the displacement came to 22%. With `Cc1c(OCC(=O)OC(C)C)ccc2c3c(c(=O)oc12)CCC3` the figure was 7.4%. Turning to `Cc1ccc(C(=O)Nc2ccccc2C(=O)NC2CCCCCC2)cc1`, the displacement turned out to be 20.5%. With `COc1ccc(C2CC(=O)C3=C(C2)Nc2ccccc2NC3c2c(F)cccc2F)cc1` (centres undefined) the figure was -7.4%; with `COC(=O)C1=C(C)NC(=O)NC1c1ccc(OCC(N)=O)cc1` (centres undefined), 5.4%. With `O=C(Nc1ccc(OCc2ccccc2)cc1)C(c1ccccc1)c1ccccc1` the figure was 7.3%; with `Cc1ccccc1OCC(=O)NC1CC(C)(C)NC(C)(C)C1`, 0.7%. With `COC(=O)c1cc(NC(=O)c2cccnc2)cc(C(=O)OC)c1` the figure was -12.7%. Regarding `NC1=C(N2CCCCC2)C(=O)c2ccccc2C1=O`, the displacement came to 10.8%. As for `CCCN(CCC)c1ccc(/C=N/NC(=O)c2cccc([N+](=O)[O-])c2)cc1`, the figure is 5.3%; as for `CCCC12C(=O)C(C)(C(c3ccccc3)=C1c1ccccc1)C1C(=O)N(c3cccc(Br)c3)C(=O)C12` (centres undefined), 11.5%. As for `NS(=O)(=O)c1ccc(NC(=O)/C(=C\c2cccs2)NC(=O)c2ccccc2)cc1`, the figure is 14.7%. With `Nn1c(Nc2ccccc2)nc2ccccc21` the figure was 2.7%; with `O=C(CN(c1ccc(Br)cc1)S(=O)(=O)c1ccccc1)NCC1CCCO1` (centres undefined), 4.1%; with `CC1=NN(c2ccc(S(N)(=O)=O)cc2)C(=O)/C1=C\c1ccc(N(C)C)cc1`, -1.9%. On to `O=C(COc1ccccc1[N+](=O)[O-])Nc1ccc(Cl)cc1Cl`, for which the displacement was 11.1%. With `CCOC(=O)c1c(NC(=O)c2cccc(F)c2)sc(C(=O)N(CC)CC)c1C` the figure was 5%; with `Cc1cc(Nc2ccc(Cl)cc2)nc(-n2nc(C)cc2C)n1`, -8.4%.

Regarding `Cc1ccc(N2C(=O)C(Cl)=C(NCc3ccccc3)C2=O)c(C)c1`, the displacement was -2.5%. As for `CCOc1ccc(C2=C/C(=C/c3cc(Br)c(OC)cc3OC)C(=O)O2)cc1`, the figure is 40.5%. `Cc1cc(C)c2cccc(NC(=S)NC(=O)c3ccccc3)c2n1`: the displacement came out at 11.1%. As for `CCN(CC)CCCOc1ccccc1Br`, the figure is 10.3%; as for `CC(C)=C1C2C=CC1C1C(=O)N(c3ccc(Cl)cc3[N+](=O)[O-])C(=O)C21` (centres undefined), -9.5%; as for `COc1ccc(NC(=O)c2sc3cc(C)ccc3c2Cl)c(OC)c1`, -6.1%. With `Cn1c(-c2nc3ccccc3n2C)nc2ccccc21` the figure was 4.2%. As for `C(/C=C/c1ccccc1)=NN1CCN(Cc2ccccc2)CC1`, the figure is -1.3%; as for `COc1ccc(N(CC(=O)Nc2ccccc2Cl)S(=O)(=O)c2ccccc2)cc1Cl`, 12.1%; as for `CC(C)N(C(=O)c1ccc(C(=O)Nc2ccc(Nc3ccccc3)cc2)cc1)C(C)C`, 13.2%. `Cc1c(Cl)c([N+](=O)[O-])nn1CC(=O)NCCCn1ccnc1`: the displacement was -2.1%. With `Cc1ccc(-c2nnc(NC(=O)c3ccco3)s2)cc1`, the displacement amounted to 0.6%. Consider `COCCOC(=O)C1=C(C)NC(=O)CC1c1c(F)cccc1Cl` (centres undefined), for which the displacement was found to be 13.1%.

For the molecule `COc1cc(/C=C2/C(=O)NC(=O)N(c3cccc(C)c3)C2=O)ccc1OCCOc1ccccc1`, the displacement was determined as 19%.

`CCC1CCc2c(sc(N)c2C(=O)OC(C)C)C1` (centres undefined): the displacement was -3.2%. For the molecule `CCN1C(=O)/C(=C\c2ccc(-c3ccc(I)cc3)o2)SC1=S`, the displacement was 15.4%. With `CCc1ccc(OCC(=O)N2CCN(c3ccc([N+](=O)[O-])cc3)CC2)cc1` the figure was 15%. As for `COc1ccc(NC(=O)CSC(N)=O)c(OC)c1`, the figure is 9%; as for `O=C(COc1ccccc1)Nc1ccc(N2CCOCC2)cc1`, 12%; as for `COc1ccc(/C=C/C(=O)N2CCCCCC2)cc1Br`, 9.9%.

As for `c1ccc(Oc2nc(-c3cccnc3)nc3ccccc23)cc1`, the displacement was 13.4%.

As for `O=C(C(Sc1ccccc1)c1ccccc1)N1CCOCC1` (centres undefined), the displacement was determined as 5.7%. Turning to `COc1ccc(C(=O)N2c3ccc(F)cc3CCC2C)cc1OC` (centres undefined), the displacement is -9.7%. As for `COc1cc(C(=O)NC(NC(=S)Nc2ccccc2Br)C(Cl)(Cl)Cl)cc(OC)c1OC` (centres undefined), the figure is -5.1%; as for `Cc1ccc(/C(O)=C2\C(=O)C(=O)N(CCCC(=O)O)C2c2ccc(N(C)C)cc2)cc1` (centres undefined), -4.1%. With `CC(C)(C)c1ccc(C(=O)N2N=C(c3cccnc3)CC2(O)C(F)(F)F)cc1` (centres undefined) the figure was -20.3%; with `CCCCOc1ccc(/C=C2/C(=O)NN(c3ccc(C(=O)OCC)cc3)C2=O)cc1OC`, -9.4%; with `O=C1/C(=C/c2cccc([N+](=O)[O-])c2)SC(=S)N1c1ccc(O)cc1`, 19.7%. As for `CCCNC(=O)/C=C/c1ccc2c(c1)OCO2`, the displacement turned out to be 5.4%.

As for `Cc1cc(Cl)ccc1NC(=O)Cc1ccccc1`, the displacement is -10%. Regarding `O=C(Nc1ccc2c(c1)OCCO2)c1ccc(Cl)c([N+](=O)[O-])c1`, the displacement turned out to be 12.4%. With `CC(=O)N1c2ccccc2NC2=C(C(=O)CC(C)(C)C2)C1c1cccc([N+](=O)[O-])c1` (centres undefined), the displacement is -0.9%.

With `NC(=S)NC12CC3CC(CC(C3)C1)C2`, the displacement is 2.2%. As for `COC(=O)C1=C(C)NC2=C(C(=O)c3ccccc32)C1c1ccc(Br)o1` (centres undefined), the figure is -1%; as for `CCCc1nc2c(C)ccc(C)c2c(N)c1CC`, -17.2%; as for `CCOC(=O)C1=NNC2C(=O)N(c3cccc(Br)c3)C(=O)C12` (centres undefined), 6.3%. `O=C(Nc1ccc(Cl)c(Cl)c1)Nc1nnc(COc2ccccc2Cl)s1`: the displacement worked out at 2.3%.

In the case of `CC(C)c1ccc(C2NN=C(c3ccccc3)S2)cc1` (centres undefined), the displacement is -1.4%.

For the molecule `Cc1ccc(S(=O)(=O)NC(=O)N2CCN(c3cccc(Cl)c3)CC2)cc1`, the displacement stood at 8.7%. As for `O=C(COc1ccccc1Cl)NNC(=O)c1ccccc1I`, the figure is -2.2%; as for `O=C1NC(=S)S/C1=C\c1cccc(OS(=O)(=O)c2cccc([N+](=O)[O-])c2)c1`, -19.5%; as for `CCOc1ccc(/C=N/N=C2\C(=O)Nc3ccccc32)cc1`, 14.5%. With `CC(=O)c1cccc(NC(=O)c2ccc([N+](=O)[O-])c(C)c2)c1` the figure was -0.1%; with `O=C(Nc1ccc(S(=O)(=O)N2CCCCC2)cc1)c1ccccc1Cl`, 11.6%; with `CCn1c2c(c3cc(Cl)ccc31)CCC/C2=N\O`, -7.9%. As for `O=C(O)CCCCCN1C(=O)C(=O)/C(=C(\O)c2ccc(Br)cc2)C1c1ccccc1F` (centres undefined), the figure is -20%; as for `COc1ccc(OC)c(NC(=O)c2cccc3c(Br)cccc23)c1`, 5.2%. Regarding `NC(=O)c1c(NC(=O)C(c2ccccc2)c2ccccc2)sc2c1CCCCCC2`, the displacement is -9.7%. With `O=S(=O)(Nc1ccc(Cl)cn1)c1ccc(-c2ccccc2)cc1`, the displacement was -8.9%.

As for `COc1ccc(CCNc2cc(N3CCN(CCO)CC3)ccc2[N+](=O)[O-])cc1OC`, the displacement was 11.7%. As for `COc1cc(OC)cc(C(=O)N/N=C(\C)CC(=O)Nc2ccccc2C(F)(F)F)c1`, the figure is -24.7%. Regarding `NC(=O)c1ccc(NC(=O)NCCCCCCNC(=O)Nc2ccc(C(N)=O)cc2)cc1`, the displacement turned out to be 5.9%. Turning to `COc1ccccc1C1=N/C(=C\c2ccc([N+](=O)[O-])cc2)C(=O)O1`, the displacement stood at 27.4%. For the molecule `COc1ccc(S(=O)(=O)/N=C2\C=C(Br)C(=O)c3ccccc32)cc1`, the displacement is -9.7%. With `O=C(CSCc1cccc(Br)c1)Nc1cccc2cccnc12` the figure was -0.7%.
